Data: PubChem BioAssay (NCATS)
The shares of active, inactive and inconclusive entries below differ from those in the screen. Potencies beside an inconclusive call are fits to weak or partial responses and may not hold up. Activity calls are given as the source filed them. The call rests on the fitted dose curve; in most records, active means well fitted inhibition curve with a large enough effect; inconclusive means small, poorly fitted or top-dose-only effect; inactive means flat fitted curve, though single readings scatter.

Target: Fructose-bisphosphate aldolase (Giardia intestinalis (strain ATCC 50803 / WB clone C6)) (UniProt A8B2U2)
Assay: qHTS Assay for Inhibitors of Fructose-1,6-bisphosphate Aldolase from Giardia Lamblia: Primary screen confirmation (AID 2787); further: nearly all actives have a fitted effect of over 45% in size;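 on activity change, negative = inhibition: aldolase product measured through coupled diaphorase step turning resazurin into fluorescent resorufin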
Conditions: purified Giardia aldolase enzyme activity; series mostly up to 57.5 µM; activity change, negative = inhibition: at the top concentration
In short: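 Confirmation of primary hits by qHTS up to 57.5 uM final compound. Enzyme at 40 nM with 30 uM ZnCl2, 10 min RT pre-incubation, then substrate/coupling/resorufin-forming detection mix for 20 min before fluorescence read at 525/598 nm.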
On the % scale 0 is the no-effect control and ±100 the full control effect; potency means the concentration at half of the fitted maximal effect; tags describe the fitted curve by direction and shape.

Chain of UniProt A8B2U2 (A8B2U2 whole entry, looked up): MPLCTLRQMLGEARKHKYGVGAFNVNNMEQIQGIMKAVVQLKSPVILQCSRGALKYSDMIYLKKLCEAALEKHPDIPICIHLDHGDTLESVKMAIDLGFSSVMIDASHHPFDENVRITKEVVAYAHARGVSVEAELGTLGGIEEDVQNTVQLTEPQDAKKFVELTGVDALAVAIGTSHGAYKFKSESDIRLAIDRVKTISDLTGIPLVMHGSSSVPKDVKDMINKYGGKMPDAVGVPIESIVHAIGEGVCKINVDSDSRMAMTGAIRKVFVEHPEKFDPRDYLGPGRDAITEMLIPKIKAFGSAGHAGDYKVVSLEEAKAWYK

Activity change, negative = inhibition, inactive:
Cc1ccc(S(=O)(=O)Nc2ncccn2)cc1 5.37%
CC1=NOC(=O)/C1=C\c1ccc(-c2ccc(Br)cc2C(=O)O)o1 -12.2%
COc1ccc(-n2c(=S)[nH]c3[nH]ncc3c2=O)cc1 0.804%
Cc1ccc(NC(=S)c2ccncc2)c(C)c1 4.17%
CCN(CC)c1ccc(S(=O)(=O)N2CCOCC2)cc1NC(=O)CN1CCN(Cc2ccccc2)CC1 -2.57%
Cc1cccc(N2C(=O)CC(Sc3ncn[nH]3)C2=O)c1 (stereo not given) 10.3%
CC1CCCN(S(=O)(=O)c2ccc(C(=O)Nc3nnc(-c4ccccn4)o3)cc2)C1 (stereo not given) 23.6%
CCC1(C)Cc2ccccc2-c2nc(NN)[nH]c(=O)c21 (stereo not given) 0.539%
N#Cc1ccccc1NC(=S)NC(=O)c1cccnc1 6.26%

Potency, active:
Cc1ccc(NC(=O)CN(C)C(=O)COc2cccc3cccnc23)cc1 12.6 µM
c1cc2c(cc1NC1CCCCCC1)OCO2 7.08 µM
CCOc1cc(/C=N/Nc2nnc(C)n2N)ccc1OC(C)=O 5.8 µM
Cc1no[n+]([O-])c1COc1cccc(/C=N/Nc2nncn2N)c1 17.8 µM
COc1cc(/C=C2\SC(c3ccc(C)cc3)=NC2=O)cc(OC)c1O 14.1 µM
COc1cc(CN2CCC(C(=O)NC3CCCC3)CC2)cc(OC)c1O 3.98 µM
O=C(Nc1nccc(-c2cccs2)n1)c1ccccc1Cl 25.1 µM
NCc1c(O)ccc2ccccc12 1.63 µM

Potency, inconclusive:
CCc1nnc(N/N=C/c2c(C)[nH]c3ccccc23)n1N 22.4 µM [inhibitor, single point]
CCOC(=O)c1oc2c(O)c(O)ccc2c(=O)c1-c1nncn1-c1ccccc1 11.2 µM [inhibitor, partial curve]
O=C(CN1C(=O)COc2ccccc21)Nc1ccc(F)cc1 6.31 µM [inhibitor, full curve]
S=c1[nH]nc(CCCc2n[nH]c(=S)o2)o1 39.8 µM [inhibitor, single point]
Cc1cc(C)c(O)c(N)c1 6.31 µM [inhibitor, partial curve]
O=c1cc(CN2CCN(Cc3ccccc3)CC2)c2ccc(O)c(O)c2o1 0.794 µM [inhibitor, partial curve]
COc1ccc(OC)c(NC(=O)C2C3CCC(C3=C(C)C)C2C(=O)O)c1 (stereo not given) 15.8 µM [inhibitor, partial curve]
COc1ccc(NC(C)=O)cc1NC(C)c1nc2sc(C)c(C)c2c(=O)[nH]1 (stereo not given) 15.8 µM [inhibitor, partial curve]
Cc1ccc(NS(=O)(=O)c2cc(-c3cc(C)no3)ccc2C(C)C)nc1 28.2 µM [inhibitor, partial curve]
CCNc1nc(NC(C)C)nc(NS(=O)(=O)c2ccc(C)cc2)n1 25.1 µM [inhibitor, partial curve]
Cc1ccc(C(=S)N2CCN(Cc3ccccc3)CC2)s1 25.1 µM [inhibitor, single point]
COc1cc(/C=C2\SC(c3ccc(C)cc3)=NC2=O)ccc1O 28.2 µM [inhibitor, partial curve]
O=[N+]([O-])c1ccc(O)c(/C=N/Nc2ccccn2)c1 39.8 µM [inhibitor, single point]
Cc1nnc(N/N=C/c2ccc(-c3ccc(Br)cc3)o2)n1N 25.1 µM [inhibitor, partial curve]
CCc1nnc(N/N=C/c2ccc(O)c(OC)c2)n1N 11.2 µM [inhibitor, partial curve]
CCOc1ccc(N2CSC3=C(C#N)C(c4ccco4)CC(=O)N3C2)cc1 (stereo not given) 11.2 µM [inhibitor, partial curve]
COc1ccc(N2CSC3=C(C#N)C(c4cccc(OC)c4OC)CC(=O)N3C2)cc1 (stereo not given) 7.08 µM [inhibitor, full curve]
CC(=O)NC(c1cccs1)c1cc([N+](=O)[O-])c2cccnc2c1O (stereo not given) 1.63 µM [inhibitor, full curve]
CNc1cccccc1=S 5.01 µM [inhibitor, partial curve]
Cc1nc(N)sc1-c1csc(Nc2cccc(C(=O)O)c2)n1 14.1 µM [inhibitor, partial curve]
Cn1c(=O)c(C(=O)Nc2ncccc2O)c(O)c2ccccc21 12.6 µM [inhibitor, partial curve]
Cc1ccc(Nc2cc(C)c3c(O)cccc3n2)cc1C 32.6 µM [inhibitor, partial curve]
COc1ccc2c(c1)-c1nc(/N=C/c3cccc(OC)c3O)sc1CC2 35.5 µM [inhibitor, partial curve]
